“And” between values parts separate entries of the source, which are not always exact repeats. Identical values can stand only once. Counter-ions that a name gives are not always drawn. This is one part of the list. Most values come without repeats; read them as rough.
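Also: screen of an FDA-approved drug library, NanoLuc luminescence read after lysing the treated cells, taken as a measure of mutant VPS33A protein stability.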

The subject of this experiment is HeLa VPS33A KO + NLuc-VPS33A R498W. The experiment is described as follows: relative mutant VPS33A R498W amount (NanoLuc luminescence) vs DMSO (fraction of DMSO); HeLa model of a glycosaminoglycan (GAG) storage disease; KI is knock-in and KO knock-out; SDC1 is syndecan 1; higher = higher mutant VPS33A level. The following applies: 50 µM; 24 h.
For `Cn1c(=O)c2c(ncn2CC(O)CO)n(C)c1=O` (stereo not drawn) [Dyphylline], the “relative mutant VPS33A R498W amount” value is 1.03.
In the case of `CCOC(=O)CC(=O)N1CCSC1COc1ccccc1OC` (stereo not drawn) [Moguisteine], the “relative mutant VPS33A R498W amount” value is 1.56.
Consider `CC(C)=CCC[C@](C)(O[C@@H]1O[C@H](CO)[C@@H](O)[C@H](O)[C@H]1O)[C@H]1CC[C@]2(C)[C@@H]1[C@H](O)C[C@@H]1[C@@]3(C)CC[C@H](O)C(C)(C)[C@@H]3[C@@H](O[C@@H]3O[C@H](CO)[C@@H](O)[C@H](O)[C@H]3O[C@@H]3O[C@@H](C)[C@H](O)[C@@H](O)[C@H]3O)C[C@]12C` [Ginsenoside Re], for which the “relative mutant VPS33A R498W amount” value is 1.32.
Consider `N[C@@H](Cc1cc(I)c(Oc2cc(I)c(O)c(I)c2)c(I)c1)C(=O)O` [L-Thyroxine], for which the “relative mutant VPS33A R498W amount” value stood at 1.17.
The result for `CC(S)C(=O)NCC(=O)O` (stereo not drawn) [Tiopronin (Thiola)] reads 0.909; that for `NCCc1c[nH]cn1` [histamine], 1.49.
In the case of `CCC(CC)O[C@@H]1C=C(C(=O)O)C[C@H](N)[C@H]1NC(C)=O` [Oseltamivir acid], the “relative mutant VPS33A R498W amount” value was determined as 1.41.
As for `CC(=O)Oc1cc(C(F)(F)F)ccc1C(=O)O` [Triflusal], the “relative mutant VPS33A R498W amount” value is 1.17.
The result for `CC[C@@H]([C@H](C)O)n1ncn(-c2ccc(N3CCN(c4ccc(OC[C@@H]5CO[C@@](Cn6cncn6)(c6ccc(F)cc6F)C5)cc4)CC3)cc2)c1=O` [Posaconazole] reads 1.1.
`CC[C@H](C)C(=O)O[C@H]1C[C@H](O)C=C2C=C[C@H](C)[C@H](CC[C@@H](O)C[C@@H](O)CC(=O)O)[C@H]21` [Pravastatin]: the “relative mutant VPS33A R498W amount” value turned out to be 1.1.
Take `Cc1cn([C@H]2C[C@H](O)[C@@H](CO)O2)c(=O)[nH]c1=O` [Thymidine]: the “relative mutant VPS33A R498W amount” value was determined as 1.17.
Turning to `Cc1cc2c(cc1S(N)(=O)=O)S(=O)(=O)CCC2` [Meticrane], the “relative mutant VPS33A R498W amount” value turned out to be 0.971.
Regarding `Cc1nc(NC(=O)N2CCC[C@H]2C(N)=O)sc1-c1ccnc(C(C)(C)C(F)(F)F)c1`, the “relative mutant VPS33A R498W amount” value was 0.128.
Regarding `C[C@@H]1CCN(C(=O)CC#N)C[C@@H]1N(C)c1ncnc2[nH]ccc12`, the “relative mutant VPS33A R498W amount” value was 0.375 and 0.364.
With `NC12CC3CC(CC(C3)C1)C2` [Amantadine], the “relative mutant VPS33A R498W amount” value came out at 1.16.
For `CC1=Nc2ccc(Cl)cc2S(=O)(=O)N1` [Diazoxide], the “relative mutant VPS33A R498W amount” value amounted to 0.975.
`CCCC(=O)[O-].[Na+]` [Sodium butyrate]: the “relative mutant VPS33A R498W amount” value came to 1.11.
`CCN(CC)CCOCCOC(=O)C1(c2ccccc2)CCCC1` [Pentoxyverine Citrate]: the “relative mutant VPS33A R498W amount” value was determined as 0.866.
For `CC(=O)Oc1cc2c(s1)CCN(C(C(=O)C1CC1)c1ccccc1F)C2` (stereo not drawn) [Prasugrel hydrochloride] the value was 0.471; for `COC(=O)N[C@H](C(=O)N[C@@H](Cc1ccccc1)[C@@H](O)CN(Cc1ccc(-c2ccccn2)cc1)NC(=O)[C@@H](NC(=O)OC)C(C)(C)C)C(C)(C)C`, 0.916.
In the case of `CCCCCCCN(CC)CCCC(O)c1ccc(NS(C)(=O)=O)cc1` (stereo not drawn) [Ibutilide Fumarate], the “relative mutant VPS33A R498W amount” value came to 0.981.
For the compound `CCc1nc(N)nc(N)c1-c1ccc(Cl)cc1` [Pyrimethamine], the “relative mutant VPS33A R498W amount” value was determined as 0.289.
For `CNS(=O)(=O)CCc1ccc2[nH]cc(C3CCN(C)CC3)c2c1` [Naratriptan], the “relative mutant VPS33A R498W amount” value was found to be 1.4.
As to `C[C@H]1C[C@@H]2[C@H]([C@@H](O)C[C@@]3(C)[C@H]2CC[C@]3(O)C(=O)COC(=O)CCC(=O)O)[C@@]2(C)C=CC(=O)C=C12` [Methylprednisolone Sodium Succinate], the “relative mutant VPS33A R498W amount” value was determined as 1.07.
In the case of `COc1cc2ncnc(Nc3ccc(F)c(Cl)c3)c2cc1OCCCN1CCOCC1` [Gefitinib (ZD1839)], the “relative mutant VPS33A R498W amount” value is 0.278.
Regarding `CC(C)NCC(O)COc1ccc(CCOCC2CC2)cc1` (stereo not drawn) [Betaxolol], the “relative mutant VPS33A R498W amount” value worked out at 1.19.
`CN1CCC(=C2c3ccccc3CC(=O)c3sccc32)CC1` [Ketotifen Fumarate]: the “relative mutant VPS33A R498W amount” value was found to be 0.889.
With `C[C@H]1COc2c(N3CCN(C)CC3)c(F)cc3c(=O)c(C(=O)O)cn1c23` [Levofloxacin], the “relative mutant VPS33A R498W amount” value turned out to be 1.07.
On to `C=C1CC[C@H](O)C/C1=C/C=C1\CCC[C@]2(C)[C@@H]([C@H](C)CCCC(C)(C)O)CC[C@@H]12` [Calcifediol], for which the “relative mutant VPS33A R498W amount” value was determined as 1.65.
For `CC(C)(C)NC(=O)N[C@H](C(=O)N1C[C@H]2[C@@H]([C@H]1C(=O)NC(CC1CCC1)C(=O)C(N)=O)C2(C)C)C(C)(C)C` (stereo partly drawn) [Boceprevir] the value was 0.825; for `CNC[C@H](O)c1cccc(O)c1` [Phenylephrine HCl], 1.02.
As to `CCOc1nc2cccc(C(=O)O)c2n1Cc1ccc(-c2ccccc2-c2noc(=O)[nH]2)cc1` [Azilsartan], the “relative mutant VPS33A R498W amount” value was 1.35.
Take `C[C@]12CC[C@H](O)CC1=CC[C@@H]1[C@@H]2CC[C@]2(C)C(n3cnc4ccccc43)=CC[C@@H]12`: the “relative mutant VPS33A R498W amount” value was 0.605.
